Measurements as given in US11407811B2, “Fusion protein, preparation method therefor and use thereof” (JIANGSU RONGTAI BIOTECH CO., LTD., priority 2017, dated 2022).

Columns and labels:
Assay type in all cases: cell-based
[1] = test system: colon cancer cells HCT-116; assay: MTT assay, proliferation of colon cancer cell HCT-116
Protocol: (§1) The MTT assay was used to detect the inhibitory effect of the integrin blocker fusion protein obtained in Example 1 on the proliferation of various tumor cells, including melanoma cell B16F10, gastric cancer cell MGC-803, lung cancer cell A549, liver cancer cell Hep-G2, breast cancer cell MDA-MB-231, colon cancer cell HCT-116, human glioma U87, and cervical cancer cell Hela.
(§2) The tumor cells were cultured in a 5% CO2 incubator at 37° C. to a density of 90% or more, and collected by trypsinization. The cells were resuspended in the culture liquid and counted under a microscope. The cell concentration was adjusted to 3.0×10^4 cells/mL. The cell suspension was inoculated into a 96-well plate at 100 μL per well and cultured overnight in a 5% CO2 incubator at 37° C. […] After the cells were fully adhered, each dilution was added to a 96-well plate at 100 μL per well, respectively. […] 20 μL of 5 mg/mL MTT was added to each well of a 96-well plate, and incubation was continued for 4 hours. The medium was aspirated and 100 μL of DMSO per well were added to dissolve. The absorbance was measured at 570 nm with a microplate reader with a reference wavelength of 630 nm, and the proliferation inhibition (PI) was calculated. The formula is as follows: […]
(§3) where Ntest is the OD value of the test group and Ncontrol is the OD value of the blank control group.
(§4) The test was repeated 5 times independently. The results obtained from the test were calculated as mean±SD, and statistical t-test was performed. P<0.05 was considered as a significant difference, and P<0.01 was considered as an extremely significant difference.

[2] = test system: melanoma cell line B16F10; assay: MTT assay, proliferation of melanoma cell B16F10
Protocol: as §1, §2, §3, §4

liver cancer cell Hep-G2 = assay: MTT assay, proliferation of liver cancer cell Hep-G2
Protocol: as §1, §2, §3, §4

[3] = test system: human umbilical vein endothelial cells (HUVEC); assay: Three-dimensional transwell assay, migration of HUVEC
Protocol: Human umbilical vein endothelial cells (HUVECs) were cultured with endothelial cell culture fluid containing 5% fetal bovine serum and 1×ECGS in a 5% CO2 incubator at 37° C., to a confluence of 90% or more, and then inhibitory effects of fusion protein I, protein II, protein III, protein IV, and protein V on migration of endothelial cells were detected by transwell assay, in which only endothelial cells HUVEC of passage 2 to 8 were used, and the specific operation was as follows.
(1) 10 mg/mL Matrigel was diluted with a DMEM medium at a ratio of 1:4, coated on a transwell chamber membrane, and air-dried at room temperature.
(2) HUVEC cells cultured to logarithmic phase were digested with 0.2% EDTA, collected, washed twice with PBS, followed by resuspended in an endothelial cell culture liquid containing 0.1% BSA, counted under a microscope, and the cell concentration was adjusted to 1×10^5 cells/mL;
(3) Test solutions for each group were formulated and diluted to 100 μL with a cell culture liquid containing 0.1% BSA;
Groups were divided as follows:
Blank control group: a cell culture liquid containing no drug;
Endostar group: 5 mg/mL Endostar solution diluted to a predetermined concentration with a cell culture liquid containing no drug; […]
(4) The cells were inoculated into a transwell chamber at 100 μL per well, and test solutions for each group were added to the chamber. To a 24-well plate, 0.6 mL of endothelial cell culture liquid containing 5% fetal bovine serum and 1×ECGS was added to stimulate cell migration, and incubated at 5% CO2 for 24 h at 37° C.
(5) The culture liquid in the well was discarded. The cells were fixed with 90% alcohol at room temperature for 30 min, stained with 0.1% crystal violet for 10 min at room temperature, and rinsed with water. Un-migrated cells in the upper layer were gently wiped off by a cotton swab. The observation was carried out under microscope and four fields of view were selected for taking photos and counting. The migration inhibition (MI) was calculated according to the formula: […]
where Ntest is the migration cell number in the test group, and Ncontrol is the migration cell number in the blank control group.
The test was repeated 3 times independently. The results obtained from the test were calculated as mean±SD, and statistical t-test was performed. P<0.05 was considered as a significant difference, and P<0.01 was considered as an extremely significant difference.

B1: Protein III: mIgG4-Fc linked to antiangiogenesis polypeptide EDSM-Y via a flexible linker; SEQ ID NO: 19 (protein)
chain: [sequence of human IgG4 Fc with S228P F234A L235A (EU numbers) and a few adjoining residues not given]GGGGSGGGGSGGGGSFQPVLHLVALNSPLSGGMRGIRGADFQCFQQARAVGLAGTFRAGGGGRGD
For B1, the “A570 nm/A630 nm” value ([1]; dose 1 μg/mL) was 0.8333 ± 0.0414, the “PI (%)” value ([1]; dose 1 μg/mL) was 5.33% and the “A570 nm/A630 nm” value ([1]; dose 2 μg/mL) was 0.7964 ± 0.0397. For the same molecule, the “PI (%)” value ([1]; dose 2 μg/mL) was 9.52%, the “A570 nm/A630 nm” value ([1]; dose 4 μg/mL) was 0.7623 ± 0.0382 and the “PI (%)” value ([1]; dose 4 μg/mL) was 13.39%. The “A570 nm/A630 nm” value ([1]; dose 8 μg/mL) was 0.7022 ± 0.0351, the “PI (%)” value ([1]; dose 8 μg/mL) was 20.22% and the “A570 nm/A630 nm” value ([1]; dose 16 μg/mL) was 0.6663 ± 0.0298. For the same molecule, the “PI (%)” value ([1]; dose 16 μg/mL) was 24.30%, the “A570 nm/A630 nm” value ([1]; dose 32 μg/mL) was 0.6023 ± 0.0276 and the “PI (%)” value ([1]; dose 32 μg/mL) was 31.57%. The “A570 nm/A630 nm” value ([1]; dose 64 μg/mL) was 0.5557 ± 0.0219, the “PI (%)” value ([1]; dose 64 μg/mL) was 36.87% and the “A570 nm/A630 nm” value ([1]; dose 128 μg/mL) was 0.4878 ± 0.0253. For the same molecule, the “PI (%)” value ([1]; dose 128 μg/mL) was 44.58%, the “A570 nm/A630 nm” value ([1]; dose 256 μg/mL) was 0.4502 ± 0.0238 and the “PI (%)” value ([1]; dose 256 μg/mL) was 48.85%. The “A570 nm/A630 nm” value ([2]; dose 1 μg/mL) was 1.1086 ± 0.0151, the “PI (%)” value ([2]; dose 1 μg/mL) was 11.57% and the “A570 nm/A630 nm” value ([2]; dose 2 μg/mL) was 1.0009 ± 0.0772. For the same molecule, the “PI (%)” value ([2]; dose 2 μg/mL) was 20.16%, the “A570 nm/A630 nm” value ([2]; dose 4 μg/mL) was 0.8592 ± 0.0637 and the “PI (%)” value ([2]; dose 4 μg/mL) was 31.47%. For the same molecule, the “A570 nm/A630 nm” value ([2]; dose 8 μg/mL) was 0.6961 ± 0.0412, the “PI (%)” value ([2]; dose 8 μg/mL) was 44.48% and the “A570 nm/A630 nm” value ([2]; dose 16 μg/mL) was 0.5219 ± 0.0775. The “PI (%)” value ([2]; dose 16 μg/mL) was 58.37%, the “A570 nm/A630 nm” value ([2]; dose 32 μg/mL) was 0.4327 ± 0.0579 and the “PI (%)” value ([2]; dose 32 μg/mL) was 65.49%. For the same molecule, the “A570 nm/A630 nm” value ([2]; dose 64 μg/mL) was 0.3029 ± 0.0284, the “PI (%)” value ([2]; dose 64 μg/mL) was 75.84% and the “A570 nm/A630 nm” value ([2]; dose 128 μg/mL) was 0.1944 ± 0.0493. The “PI (%)” value ([2]; dose 128 μg/mL) was 84.49%, the “A570 nm/A630 nm” value ([2]; dose 256 μg/mL) was 0.0818 ± 0.0302 and the “PI (%)” value ([2]; dose 256 μg/mL) was 93.48%. The “A570 nm/A630 nm” value (liver cancer cell Hep-G2; dose 1 μg/mL) was 0.6726 ± 0.0335, the “PI (%)” value (liver cancer cell Hep-G2; dose 1 μg/mL) was 1.78% and the “A570 nm/A630 nm” value (liver cancer cell Hep-G2; dose 2 μg/mL) was 0.6111 ± 0.0287. The “PI (%)” value (liver cancer cell Hep-G2; dose 2 μg/mL) was 10.76%, the “A570 nm/A630 nm” value (liver cancer cell Hep-G2; dose 4 μg/mL) was 0.5862 ± 0.0275 and the “PI (%)” value (liver cancer cell Hep-G2; dose 4 μg/mL) was 14.40%. For the same molecule, the “A570 nm/A630 nm” value (liver cancer cell Hep-G2; dose 8 μg/mL) was 0.5586 ± 0.0105, the “PI (%)” value (liver cancer cell Hep-G2; dose 8 μg/mL) was 18.43% and the “A570 nm/A630 nm” value (liver cancer cell Hep-G2; dose 16 μg/mL) was 0.5102 ± 0.0214. For the same molecule, the “PI (%)” value (liver cancer cell Hep-G2; dose 16 μg/mL) was 25.50%, the “A570 nm/A630 nm” value (liver cancer cell Hep-G2; dose 32 μg/mL) was 0.4756 ± 0.0245 and the “PI (%)” value (liver cancer cell Hep-G2; dose 32 μg/mL) was 30.55%. For the same molecule, the “A570 nm/A630 nm” value (liver cancer cell Hep-G2; dose 64 μg/mL) was 0.4213 ± 0.0219, the “PI (%)” value (liver cancer cell Hep-G2; dose 64 μg/mL) was 38.48% and the “A570 nm/A630 nm” value (liver cancer cell Hep-G2; dose 128 μg/mL) was 0.3786 ± 0.0214. For the same molecule, the “PI (%)” value (liver cancer cell Hep-G2; dose 128 μg/mL) was 44.71%, the “A570 nm/A630 nm” value (liver cancer cell Hep-G2; dose 256 μg/mL) was 0.3259 ± 0.0194 and the “PI (%)” value (liver cancer cell Hep-G2; dose 256 μg/mL) was 52.41%. The “inhibitory effect on liver cancer cell Hep-G2” value (liver cancer cell Hep-G2; in words) was “a certain inhibitory effect”, the “MI (%)” value ([3]; dose 0.25 μg/mL) was 14.88% and the Migration cell number ([3]; dose 0.25 μg/mL) was 2139 ± 184.39. The “MI (%)” value ([3]; dose 0.5 μg/mL) was 51.89%, the Migration cell number ([3]; dose 0.5 μg/mL) was 1209 ± 307.58 and the “MI (%)” value ([3]; dose 1 μg/mL) was 65.26%. The Migration cell number ([3]; dose 1 μg/mL) was 873 ± 142.04, the “MI (%)” value ([3]; dose 2 μg/mL) was 70.08% and the Migration cell number ([3]; dose 2 μg/mL) was 752 ± 192.37. For the same molecule, the “MI (%)” value ([3]; dose 4 μg/mL) was 78.59%, the Migration cell number ([3]; dose 4 μg/mL) was 538 ± 54.26 and the “MI (%)” value ([3]; dose 8 μg/mL) was 43.49%. For the same molecule, the Migration cell number ([3]; dose 8 μg/mL) was 1420 ± 136.22.
